Source: the supplement of paper PMC7826260
The list shows a part of the results. One pool of 16,384 single-stranded DNAs met each Rep nickase domain in vitro for 1 h at 37 °C with 3 µM enzyme; only the middle of the 90-letter strands is printed. Numbers give uncut DNA relative to the enzyme-free pool, as log2; uncut sequences lie near 0, cut ones below; no hit call is given. Counts are relative to all reads; uncut strands gain when others are lost, and binding without cutting may add a little.

test system: T1, Rep nickase domain of tomato golden mosaic virus; assay: uncleaved DNA left, log2 of reads against the no-enzyme library (log2 ratio); higher = less cleavage (more negative = more Rep cleavage of the k-mer); sequences stand for … in CTCGTCCG…ACCGGAGA
T1 sequence (protein, residues 1-124, tag omitted): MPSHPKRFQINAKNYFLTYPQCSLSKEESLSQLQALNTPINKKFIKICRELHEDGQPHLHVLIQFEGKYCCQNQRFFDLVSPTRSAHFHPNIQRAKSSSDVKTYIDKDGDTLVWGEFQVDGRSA
Procedure: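 A pool of 90-nt single-stranded DNAs with seven random bases just before the constant AC of the nick site (name = the seven bases) was cut by 3 µM recombinant His6-SUMO-tagged Rep nickase domain (300 nM DNA, 50 mM HEPES pH 8.0, 50 mM NaCl, 1 mM MnCl2, 1 h, 37 °C, three replicates). Uncut DNA was amplified and sequenced.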

Sequence	uncleaved DNA left (log2)
AGCGCTC	0.0884
CAGGACC	0.152
CGGGTGG	-0.0512
TTCAACA	-0.16
TCTGCCG	-0.0191
GGCTCTC	-0.226
CCGTGGA	-0.0581
AGATCGC	-0.142
CTGAGAG	0.033
TTTCGCA	-0.194
CCGTGGT	-0.394
AGCGCCG	0.0822
GATCTAG	0.101
ATCGATA	0.0736
TCAACTA	-0.0506
CAGGACA	0.234
ACTTTGG	0.265
TGGTGAA	0.0403
CGGCACC	0.00228
CATCGAC	0.0612

Sequence	uncleaved DNA left (log2)
CGCTCAC	-0.189
AGGCCTG	0.161
TCAGGGC	0.00587
GCAGTAA	0.0386
TCGCTAT	-0.127
GGCAGGA	-0.0374
GTCCCTG	0.0156
ATCTGTG	0.0816
GGAATGC	0.0669
CGGATAG	-0.00795
GGACGCA	0.1
GCATTAC	-0.028
ATCCTAC	-0.0975
CCTATAT	0.0592
ACTAGGC	0.145
ATAGAGT	0.0825
AGTGGCG	0.119
TTTTGAC	-0.175
TAACTAA	0.0631
TAGACCC	-0.0797
